The source of these data is the supplement of paper PMC3656093.

SMILES strings stand for the structures. “And” between values parts separate entries of the source, which are not always exact repeats. Identical values can stand only once. ± gives the standard deviation of the averaged measurements. In all, about 1,900 compounds were measured (“CD40L-induced NF-kB luciferase activity, plate-corrected, relative to DMSO (0) and IKK inhibitor VII (-100) controls”: median about 0.032, lowest 2% from about -26 on). Some of the results follow.

The experiment concerns BL2-NFkB-Luc. Description: CD40L-induced NF-kB luciferase activity, plate-corrected, relative to DMSO (0) and IKK inhibitor VII (-100) controls (% normalized activity); higher = more NF-kB reporter activity (less inhibition). Particulars: 9.4 µM; stimulus: tCD40L 64 ng/ml; 4.5 h. How it is done:
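BL2 B cells with a stable NF-kB response-element luciferase reporter (BL2-NFkB-Luc), 384-well. Cells were pre-incubated with compound at 9.4 uM for 1 h at 37 C, then stimulated with 64 ng/ml trimerized CD40L for 4.5 h; luciferase was read with Steady-Glo. Signal was normalised per plate in Genedata (median DMSO neutral control = 0, median IKK inhibitor VII at 50 uM = -100) with Assay Median plate-pattern correction; duplicate plates.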
Take `COCCOC(=O)c1c(C)oc2ccc(OCc3cc(C(=O)OC)oc3C)cc12`: the “CD40L-induced NF-kB luciferase activity” value is -1.8 ± 0.73.

As to `O=C1C(=O)c2ccccc2C(O)=C1c1ccccc1F`, the “CD40L-induced NF-kB luciferase activity” value is -1.75 ± 1.4. The value for `COc1ccc(CCNc2ncnc3c2[nH]c2cc(OC)c(OC)cc23)cc1OC` was 0.0735 ± 2.6; that for `Cc1cc(=O)oc2cc(OC(C)C(=O)NCC3CCCO3)ccc12` (stereo not given) was -1.24 ± 1.4. Then `CCCCCC#CCC#CCC#CCC#CCCCC(=O)O`, with 1.01 ± 0.55; and `CCN(Cc1cnn(C)c1)Cc1nc(C(c2ccccc2)c2ccccc2)no1`, with -0.986 ± 2.9.

`Cc1ccc(CN2CCN(CCCc3ccccc3)CC2CCO)cc1` (stereo not given): the “CD40L-induced NF-kB luciferase activity” value was 0.826 ± 1.2. Then `O=C(Nc1ccccc1)c1ccccc1CCc1ccccc1`, with -5.88 ± 6.5. As to `CC1=C(/C=C/C(C)=C/C=C/C(C)=C/C(=O)O)C(C)(C)CCC1`, the “CD40L-induced NF-kB luciferase activity” value is -1.84 ± 3.9. The value for `Cc1[nH]c2ccccc2c1/C=C/c1nc2ccccc2c(=O)n1CCO` was 2.11 ± 2.5; that for `CC1(C)CC(=O)c2c(nc3ccccc3c2N)C1` was 3.92 ± 3.9. The value for `O=C(Nc1c(C(=O)O)[nH]c2ccccc12)NC1CCCCC1` was -0.728 ± 0.3. The value for `CC1CCN(CCOCCOc2ccccc2Br)CC1` was -6.43 ± 0.53; that for `CC(C)[C@H]1CN(C)CCN1Cc1cn(C)nc1-c1cccc(Cl)c1` was 2.03 ± 0.42; that for `CCC(CO)NCCNC(CC)CO` (stereo not given) was -0.602 ± 4.3. On to `c1cnc(N2CCN(Cc3ccc4c(c3)OCO4)CC2)nc1`, for which the “CD40L-induced NF-kB luciferase activity” value came out at 1.72 ± 4.8. Turning to `CN(C)C(=O)C12CCC(C)(c3nc4ccccc4nc31)C2(C)C` (stereo not given), the “CD40L-induced NF-kB luciferase activity” value is -0.308 ± 2.1. The value for `CNS(=O)(=O)c1ccc(C)cc1` was -4.84 ± 3.1; that for `COC(=O)c1ccc2c(c1)C(=O)/C(=C/c1ccc(O)cc1)O2` was 27.6 ± 4.8; that for `COc1cccc(-n2cc(CNCc3c(C(=O)N(C)C)nc4ccc(Cl)cn34)cn2)c1` was -9.15 ± 7.3.

Consider `COC(=O)c1cc(C(=O)NCCC(C)C)cc([N+](=O)[O-])c1`, for which the “CD40L-induced NF-kB luciferase activity” value is 2.53 ± 4.5. Then `CC(C)NCC(O)COc1ccc(CCOCC2CC2)cc1` (stereo not given), with 2.37 ± 1.7.

As to `O=C(NCCc1cccc(F)c1)[C@@H]1CSC2c3ccccc3C(=O)N21` (stereo not given in full), the “CD40L-induced NF-kB luciferase activity” value is 1.68 ± 3.7. As for `CCc1nc(N)nc(N)c1-c1ccc(Cl)cc1`, the “CD40L-induced NF-kB luciferase activity” value is -2.25 ± 6.6. Then `CC(=O)[C@@]1(O)CC[C@H]2[C@@H]3C[C@H](C)C4=CC(=O)C=C[C@]4(C)[C@@]3(F)[C@@H](O)C[C@@]21C`, with -27 ± 2.1. The value for `Clc1ccc(OCCCN2CCCCC2)c(Br)c1` was 26.05 ± 0.19. Take `C1CCC(C(CC2CCCCN2)C2CCCCC2)CC1` (stereo not given): the “CD40L-induced NF-kB luciferase activity” value is -4.41 ± 2.6.

On to `COc1cccc(CN2CCN(C(=O)c3ccc(-c4ccccc4)cc3)CC2)c1`, for which the “CD40L-induced NF-kB luciferase activity” value was -7.33 ± 1.1. For the compound `Cc1ccc(S(=O)(=O)N[C@@H](Cc2ccccc2)C(=O)CCl)cc1`, the “CD40L-induced NF-kB luciferase activity” value was -1.58 ± 3.4.

Take `Cc1ccc(S(=O)(=O)Nc2ccc(S(=O)(=O)Nc3cc(C)nc(C)n3)cc2)cc1`: the “CD40L-induced NF-kB luciferase activity” value is -8.38 ± 8.1.

In the case of `CCN(CC)CCCNC(=O)C1c2ccccc2Oc2ccccc21`, the “CD40L-induced NF-kB luciferase activity” value is -3.46 ± 0.27. Take `COc1ccc(CCN=C(N)C(C)c2ccccc2)cc1OC` (stereo not given): the “CD40L-induced NF-kB luciferase activity” value is -3.05 ± 0.85. Then `COC1CCN(C(=O)c2ccc(OC3CCN(Cc4ccccn4)CC3)cc2)CC1`, with 1.24 ± 1.7; and `C1COC(NC(C2CC2)C2CC2)=N1`, with -13.2 ± 2.6. `OC[C@H]1O[C@@H](n2cnc3c(NC4CCCC4)ncnc32)[C@H](O)[C@@H]1O`: the “CD40L-induced NF-kB luciferase activity” value worked out at 2.06 ± 1.5. Then `CCOc1cc(C)cc2oc(=O)cc(-c3ccccc3)c12`, with 3.93 ± 4.9. Then `CCN(Cc1ccncc1)Cc1nc(Cc2ccccc2Cl)no1`, with -7.81 ± 3.5; and `O=C1c2ccccc2C(=O)N1N=Cc1ccc(Oc2ccc([N+](=O)[O-])cn2)cc1`, with -4.09 ± 2.3; and `CC(C)CC(=O)Nc1ccc2oc(-c3ccncc3)nc2c1`, with 26 ± 0.73. Then `COc1cccc2c1C(=O)O/C2=C/c1ccc2c(c1)OCO2`, with 28.6 ± 1.4. With `Cc1ccc2c(c1C)NC(C(=O)O)C1CC=CC21` (stereo not given), the “CD40L-induced NF-kB luciferase activity” value amounted to 3.76 ± 5.1. Then `c1cc2c(cc1C1CCCCC1)c1c3n2CCN=C3CCC1`, with 0.187 ± 4.2; and `CC(C)[N+](C)(CCOC(=O)C1c2ccccc2Oc2ccccc21)C(C)C`, with 0.014 ± 1.2; and `CC(C)CCn1c(N2CCc3ccccc3C2)nc2c1c(=O)[nH]c(=O)n2C`, with -3.02 ± 1.3.

On to `c1ccc(Nc2ccccn2)nc1`, for which the “CD40L-induced NF-kB luciferase activity” value came out at 6.17 ± 1.9.

Take `Cc1oc2c(O)c(O)ccc2c(=O)c1-c1ccccc1`: the “CD40L-induced NF-kB luciferase activity” value is -3.05 ± 0.95.

Regarding `O=C(O)CCNC(=O)c1ccccc1`, the “CD40L-induced NF-kB luciferase activity” value was -9.57 ± 13. Then `CC1=NN(c2ccccc2)C(=O)C1`, with 5.27 ± 1.1; and `COc1ccc(S(=O)(=O)NCc2ccco2)c2ccccc12`, with -4.19 ± 2.6. Then `CCc1ccc(/C=C2\Oc3cc(OC(=O)N4CCOCC4)ccc3C2=O)cc1`, with -1.86 ± 2.5.

Turning to `CCN(CC)CCNC(=O)c1cc(Cl)c(N)cc1OC`, the “CD40L-induced NF-kB luciferase activity” value was -2.68 ± 3.5.

`Cn1c(=O)c2c(nc(SCCN3CCCCC3)n2C)n(C)c1=O`: the “CD40L-induced NF-kB luciferase activity” value was 20.3 ± 3.3.

As to `COc1cc2c(cc1OC)C1(CCCC1)CNC2c1cccc([N+](=O)[O-])c1` (stereo not given), the “CD40L-induced NF-kB luciferase activity” value amounted to 3.56 ± 5.5. Then `CCOc1ccc2ccccc2c1C(=O)N[C@@H]1C(=O)N2[C@@H]1SC(C)(C)[C@@H]2C(=O)O`, with -1.05 ± 2.5; and `CCCC(=O)O[C@]1(C(=O)CCl)[C@@H](C)C[C@H]2[C@@H]3CCC4=CC(=O)C=C[C@]4(C)[C@@]3(F)C(=O)C[C@@]21C`, with -27.9 ± 3.7; and `NCCCC(=O)O`, with -0.919 ± 3. Then `O=C(c1ccccc1)N1CCN(C(=O)c2ccccc2)CC1`, with -3.7 ± 1.3. The value for `COc1ccc(OC)c(S(=O)(=O)N2CCCc3ccccc32)c1` was -3.54 ± 0.38; that for `NCCc1cnc[nH]1` was -0.729 and -1.3. Turning to `CC/C(=C(\c1ccc(O)cc1)c1ccc(OCCN(C)C)cc1)c1ccccc1`, the “CD40L-induced NF-kB luciferase activity” value was -3 ± 0.97.
